Source: the supplement of paper PMC4604168 (melanoma cell lines)
The list shows a part of the results. Repeats are few or missing, and single values can be far off.

The molecules below were run on SkMel2 (assay: cell count relative to DMSO control; melanoma cells; higher = more viable cells). Conditions: library dose: standard library concentration; 72 h.
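Further: cells treated in 1,536-well plates, then fixed and DAPI-stained, with nuclei counted from automated high-throughput microscope images.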

Row | Compound | cell count [%]
1 | C[C@]1(O)C[C@@H](c2nc(-c3ccc4ccc(-c5ccccc5)nc4c3)c3c(N)nccn32)C1 + COc1ccc(-c2ccc3c(N4CCOCC4)nc(N4C[C@@H](C)O[C@@H](C)C4)nc3n2)cc1CO [KU0063794] (first compound 2 µM, partner dose 0.1 µM) | 65.1
2 | Cn1cnc2c(F)c(Nc3ccc(Br)cc3Cl)c(C(=O)NOCCO)cc21 [selumetinib] + O=c1cc(-c2cccc3c2Sc2ccccc2S3)oc(N2CCOCC2)c1 [KU55933] (first compound 0.075 µM, partner dose 5 µM) | 26.4
3 | Cn1cnc2c(F)c(Nc3ccc(Br)cc3Cl)c(C(=O)NOCCO)cc21 [selumetinib] + O=C(Nc1ccccc1)c1cc([N+](=O)[O-])ccc1Cl [GW9662] (first compound 0.075 µM, partner dose 10 µM) | 39.4
4 | COc1cc([C@@H]2c3cc4c(cc3[C@@H](O[C@@H]3O[C@@H]5CO[C@@H](C)O[C@H]5[C@H](O)[C@H]3O)[C@H]3COC(=O)[C@H]23)OCO4)cc(OC)c1O [etoposide] + COc1cc(N2CCC(N3CCN(C)CC3)CC2)ccc1Nc1ncc(Cl)c(Nc2ccccc2S(=O)(=O)C(C)C)n1 [NVP-TAE684] (first compound 0.1 µM, partner dose 0.4 µM) | 65.8
5 | Cn1cnc2c(F)c(Nc3ccc(Br)cc3Cl)c(C(=O)NOCCO)cc21 [selumetinib] + COc1ccc(COc2ccc(Cc3cnc(N)nc3N)cc2OC)cc1 [GW2580] (first compound 0.075 µM, partner dose 5 µM) | 59.2
6 | CCN(CC)CCNC(=O)c1c(C)[nH]c(/C=C2\C(=O)Nc3ccc(F)cc32)c1C [sunitinib] + Oc1cc(-c2nc(-c3ccccc3)[nH]c2-c2ccncc2)ccc1Cl [L779450] (first compound 2 µM, partner dose 1 µM) | 1.69
7 | Cn1cnc2c(F)c(Nc3ccc(Br)cc3Cl)c(C(=O)NOCCO)cc21 [selumetinib] + CCN(CC)CCCCNc1ncc2cc(-c3cc(OC)cc(OC)c3)c(NC(=O)NC(C)(C)C)nc2n1 [PD173074] (first compound 0.075 µM, partner dose 0.5 µM) | 30.1
8 | COc1cc([C@@H]2c3cc4c(cc3[C@@H](O[C@@H]3O[C@@H]5CO[C@@H](C)O[C@H]5[C@H](O)[C@H]3O)[C@H]3COC(=O)[C@H]23)OCO4)cc(OC)c1O [etoposide] + CCCCCCCCCCCC1=C(O)C(=O)C=C(O)C1=O [Embelin] (first compound 0.1 µM, partner dose 6 µM) | 56.8
9 | CCN(CC)CCNC(=O)c1c(C)[nH]c(/C=C2\C(=O)Nc3ccc(F)cc32)c1C [sunitinib] + Cc1cc([N+](=O)[O-])ccc1NS(=O)(=O)c1cc(Cl)ccc1Cl [FH535] (first compound 2 µM, partner dose 5 µM) | 62.1
10 | C[C@]1(O)C[C@@H](c2nc(-c3ccc4ccc(-c5ccccc5)nc4c3)c3c(N)nccn32)C1 + COC(=O)c1sccc1S(=O)(=O)Nc1ccc(Nc2ccccc2)cc1OC [GSK0660] (first compound 2 µM, partner dose 5 µM) | 74
11 | COc1cc([C@@H]2c3cc4c(cc3[C@@H](O[C@@H]3O[C@@H]5CO[C@@H](C)O[C@H]5[C@H](O)[C@H]3O)[C@H]3COC(=O)[C@H]23)OCO4)cc(OC)c1O [etoposide] + c1cc(-c2cnn3cc(-c4ccc(OCCN5CCCCC5)cc4)cnc23)ccn1 [Dorsomorphin] (first compound 0.1 µM, partner dose 2 µM) | 54.9
12 | C[C@]1(O)C[C@@H](c2nc(-c3ccc4ccc(-c5ccccc5)nc4c3)c3c(N)nccn32)C1 + CCN(CC)CCCCNc1ncc2cc(-c3cc(OC)cc(OC)c3)c(NC(=O)NC(C)(C)C)nc2n1 [PD173074] (first compound 2 µM, partner dose 0.5 µM) | 69.7
13 | COc1cc([C@@H]2c3cc4c(cc3[C@@H](O[C@@H]3O[C@@H]5CO[C@@H](C)O[C@H]5[C@H](O)[C@H]3O)[C@H]3COC(=O)[C@H]23)OCO4)cc(OC)c1O [etoposide] + CCN(CC)CCCCNc1ncc2cc(-c3cc(OC)cc(OC)c3)c(NC(=O)NC(C)(C)C)nc2n1 [PD173074] (first compound 0.1 µM, partner dose 0.5 µM) | 80.6
14 | COc1cc([C@@H]2c3cc4c(cc3[C@@H](O[C@@H]3O[C@@H]5CO[C@@H](C)O[C@H]5[C@H](O)[C@H]3O)[C@H]3COC(=O)[C@H]23)OCO4)cc(OC)c1O [etoposide] + O=C(Nc1ccccc1)c1cc([N+](=O)[O-])ccc1Cl [GW9662] (first compound 0.1 µM, partner dose 10 µM) | 65.4
15 | COc1cc([C@@H]2c3cc4c(cc3[C@@H](O[C@@H]3O[C@@H]5CO[C@@H](C)O[C@H]5[C@H](O)[C@H]3O)[C@H]3COC(=O)[C@H]23)OCO4)cc(OC)c1O [etoposide] + COc1ccc2c(c1)CCC1C2CCC2(C)C(NCCCCCCN3C(=O)C=CC3=O)CCC12 [U73122] (first compound 0.1 µM, partner dose 2 µM) | 83.9
16 | Cn1cnc2c(F)c(Nc3ccc(Br)cc3Cl)c(C(=O)NOCCO)cc21 [selumetinib] + O=C(O)C(=O)Nc1sc2c(c1C(=O)O)CCNC2 [TCS401] (first compound 0.075 µM, partner dose 8.33333 µM) | 61.7
17 | C[C@]1(O)C[C@@H](c2nc(-c3ccc4ccc(-c5ccccc5)nc4c3)c3c(N)nccn32)C1 + Oc1nc(-c2ccc(C(F)(F)F)cc2)nc2c1CSCC2 [XAV939] (first compound 2 µM, partner dose 10 µM) | 83.1
18 | COc1cc([C@@H]2c3cc4c(cc3[C@@H](O[C@@H]3O[C@@H]5CO[C@@H](C)O[C@H]5[C@H](O)[C@H]3O)[C@H]3COC(=O)[C@H]23)OCO4)cc(OC)c1O [etoposide] + Oc1cc(-c2nc(-c3ccccc3)[nH]c2-c2ccncc2)ccc1Cl [L779450] (first compound 0.1 µM, partner dose 1 µM) | 27.4
19 | C[C@]1(O)C[C@@H](c2nc(-c3ccc4ccc(-c5ccccc5)nc4c3)c3c(N)nccn32)C1 + CCCCCCCCCCCC1=C(O)C(=O)C=C(O)C1=O [Embelin] (first compound 2 µM, partner dose 6 µM) | 80.1
20 | CCN(CC)CCNC(=O)c1c(C)[nH]c(/C=C2\C(=O)Nc3ccc(F)cc32)c1C [sunitinib] + CCCCCCCCCCCC1=C(O)C(=O)C=C(O)C1=O [Embelin] (first compound 2 µM, partner dose 6 µM) | 71.8
21 | C[C@]1(O)C[C@@H](c2nc(-c3ccc4ccc(-c5ccccc5)nc4c3)c3c(N)nccn32)C1 + O=C(Nc1ccccc1)c1cc([N+](=O)[O-])ccc1Cl [GW9662] (first compound 2 µM, partner dose 10 µM) | 75.7
22 | COc1cc([C@@H]2c3cc4c(cc3[C@@H](O[C@@H]3O[C@@H]5CO[C@@H](C)O[C@H]5[C@H](O)[C@H]3O)[C@H]3COC(=O)[C@H]23)OCO4)cc(OC)c1O [etoposide] + CCc1ccc(CCOc2ccc(CC3SC(=O)NC3=O)cc2)nc1 [pioglitazone] (first compound 0.1 µM, partner dose 10 µM) | 62.8
23 | C[C@]1(O)C[C@@H](c2nc(-c3ccc4ccc(-c5ccccc5)nc4c3)c3c(N)nccn32)C1 + O=c1cc(-c2cccc3c2Sc2ccccc2S3)oc(N2CCOCC2)c1 [KU55933] (first compound 2 µM, partner dose 5 µM) | 55.6
24 | C[C@]1(O)C[C@@H](c2nc(-c3ccc4ccc(-c5ccccc5)nc4c3)c3c(N)nccn32)C1 + O=C1NC(=O)/C(=C/c2ccc(-c3ccc(F)cc3O)o2)S1 [AS252424] (first compound 2 µM, partner dose 5 µM) | 79.2
25 | Cn1cnc2c(F)c(Nc3ccc(Br)cc3Cl)c(C(=O)NOCCO)cc21 [selumetinib] + CCCCCCCCCCCC1=C(O)C(=O)C=C(O)C1=O [Embelin] (first compound 0.075 µM, partner dose 6 µM) | 53.2
26 | CCN(CC)CCNC(=O)c1c(C)[nH]c(/C=C2\C(=O)Nc3ccc(F)cc32)c1C [sunitinib] + O=C(O)C(=O)Nc1sc2c(c1C(=O)O)CCNC2 [TCS401] (first compound 2 µM, partner dose 8.33333 µM) | 71.1
27 | C[C@]1(O)C[C@@H](c2nc(-c3ccc4ccc(-c5ccccc5)nc4c3)c3c(N)nccn32)C1 + Oc1cc(-c2nc(-c3ccccc3)[nH]c2-c2ccncc2)ccc1Cl [L779450] (first compound 2 µM, partner dose 1 µM) | 11.3
28 | COc1cc([C@@H]2c3cc4c(cc3[C@@H](O[C@@H]3O[C@@H]5CO[C@@H](C)O[C@H]5[C@H](O)[C@H]3O)[C@H]3COC(=O)[C@H]23)OCO4)cc(OC)c1O [etoposide] + COC(=O)c1sccc1S(=O)(=O)Nc1ccc(Nc2ccccc2)cc1OC [GSK0660] (first compound 0.1 µM, partner dose 5 µM) | 66.7
